What was measured:
[1] = molecular target: recombinant CD163 immobilized on a Biacore chip (Homo sapiens, UniProt Q86VB7); assay: Surface plasmon resonance (Biacore) analysis of mAb binding to immobilized CD163; details: 5 μg/ml
Method: SPR analysis of the binding of mAbs to CD163 was carried out on a Biacore 2000 instrument (Biacore, Uppsala, Sweden). The Biacore sensor chips (type CM5) were activated with a 1:1 mixture of 0.2 M N-ethyl-N′-(3-dimethylaminopropyl) carbodiimide and 0.05 M N-hydroxysuccimide in water. Purified recombinant CD163 were immobilized in 10 mM sodium acetate, pH 4.0, and the remaining binding sites were blocked with 1 M ethanolamine, pH 8.5. The SPR signal generated from immobilized recombinant CD163 proteins corresponded to 40-70 fmol of protein/mm^2. Sensorgrams were generated using mAb concentrations ranging from 5-100 nM. The flow cells were regenerated with 1.6 M glycine-HCl, pH 3. The running buffer used for the experiment was either CaHBS 10 mM Hepes, 150 mM NaCl, 3.0 mM CaCl2, 1.0 mM EGTA, and 0.005% Tween 20, pH 7.4. or 10 mM Hepes, 150 mM NaCl, 3.0 mM EDTA, and 0.005% Tween 20, pH 7.4, mAb samples were dissolved in the same buffer as the running buffer used. All binding data were analyzed using the Biamolecular Interaction Analysis evaluation program version 3.1.
SPR analysis of the binding of mAbs to CD163 was carried out on a Biacore 2000 instrument (Biacore, Uppsala, Sweden). […] All binding data were analyzed using the Biamolecular Interaction Analysis evaluation program version 3.1.

[2] = molecular target: T1, CD163 on CD14 positive monocytes (Homo sapiens, UniProt Q86VB7); assay: Flow cytometry, binding of KN2/NRY to human monocytes; format: cell-based
T1 construct: endogenous in cells; host or cells: human peripheral blood monocytes, monocyte-derived macrophages, blood dendritic cells
Method: The cell suspensions were washed in PBS pH 7.4 (0.1% NaN3) and the cell density adjusted to 3-5×10^6/ml. The cells were incubated at 0.3-0.5×10^6/ml with primary mAb (0.1-0.5 μg) in 100 μl PBS pH 7.4 (0.1% NaN3 and 2% FBS) for one hour at 4° C. Subsequently, the cells were washed in PBS (0.1% NaN3) and incubated with secondary Ab (anti-mouse IgG-FITC or anti-human IgG-FITC (both AbD-Serotec Dusseldorf, Germany)) for 30 min at 4° C. The stained cells were washed twice in PBS pH 7.4 (0.1% NaN3 and 2 FBS) by centrifugation at 1200 rpm for 5 min, 4° C. before analysis on a FACSCalibur (BD Biosciences, New Jersey, USA). The data were further analyzed using the FlowJo7 software package (Tri Star, Origon, USA).

[3] = molecular target: T2, human CD163 VKVQEE→LKIHEK and double mutant (Homo sapiens, UniProt Q86VB7, E71K/Q69H/R112D/V66L/V68I); assay: Western blotting of human CD163 LKIHEK containing mutants; format: binding
T2 construct: a pcDNA5-FRT-humanCD163 plasmid harboring the full length human CD163 cDNA; expressed in transfected cells; host or cells: HEK 293 cells (transient)
Method: Each cell pellet was added 1 ml lysis buffer (10 mM Tris pH 8, 140 mM NaCl, 15 mM MgSO4 1% Triton X-100) and incubated for 15 min at 4 °C with rotation. After centrifugation for 30 min at 6000 rpm the supernatants were sterile filtered.
90 μl of each of the supernatants were added 30 μl of 4×LDS sample buffer. 3×20 μl samples of each supernatant and 8 μl SeeBlue plus2 prestained marker were loaded on NuPage 4-12% Bis-Tris-Gels (Invitrogen, Taastrup, Denmark) and the SDS-PAGEs were run with MOPS running buffer according to instructions of the manufacturer (200 V constant for 50 min). Blotting to PVDF membranes (Invitrogen, Taastrup, Denmark) was done on an iBLOT device according to instructions of the manufacturer. After blotting the membranes were washed briefly in 1×PBS 0.1% Tween and blocked for 30 min in 1×PBS 2% Tween at room temperature with shaking. After blocking the membranes were washed 3×5 min in 1×PBS 0.1% Tween and incubated 1 hour with: (1) 10 ml 1 μg/ml polyclonal rabbit anti-human CD163; (2) 10 ml 1 μg/ml Mac2-158; (3) 10 ml 1:500 KN2/NRY-HRP all diluted in 1×PBS 0.1% Tween. The membranes were washed with 3×5 min 1×PBS 0.1% Tween again and incubated with: (1) 10 ml Goat anti-rabbit-HRP 1:1000 (AbD Serotec, Oxford, UK); or (2) 10 ml Goat anti-mouse-HRP 1:1000 (Dako, Glostrup, Denmark) for 1 hour. […]

T2 sequence (Q86VB7 42-1156 V66L/V68I/Q69H/E71K/R112D): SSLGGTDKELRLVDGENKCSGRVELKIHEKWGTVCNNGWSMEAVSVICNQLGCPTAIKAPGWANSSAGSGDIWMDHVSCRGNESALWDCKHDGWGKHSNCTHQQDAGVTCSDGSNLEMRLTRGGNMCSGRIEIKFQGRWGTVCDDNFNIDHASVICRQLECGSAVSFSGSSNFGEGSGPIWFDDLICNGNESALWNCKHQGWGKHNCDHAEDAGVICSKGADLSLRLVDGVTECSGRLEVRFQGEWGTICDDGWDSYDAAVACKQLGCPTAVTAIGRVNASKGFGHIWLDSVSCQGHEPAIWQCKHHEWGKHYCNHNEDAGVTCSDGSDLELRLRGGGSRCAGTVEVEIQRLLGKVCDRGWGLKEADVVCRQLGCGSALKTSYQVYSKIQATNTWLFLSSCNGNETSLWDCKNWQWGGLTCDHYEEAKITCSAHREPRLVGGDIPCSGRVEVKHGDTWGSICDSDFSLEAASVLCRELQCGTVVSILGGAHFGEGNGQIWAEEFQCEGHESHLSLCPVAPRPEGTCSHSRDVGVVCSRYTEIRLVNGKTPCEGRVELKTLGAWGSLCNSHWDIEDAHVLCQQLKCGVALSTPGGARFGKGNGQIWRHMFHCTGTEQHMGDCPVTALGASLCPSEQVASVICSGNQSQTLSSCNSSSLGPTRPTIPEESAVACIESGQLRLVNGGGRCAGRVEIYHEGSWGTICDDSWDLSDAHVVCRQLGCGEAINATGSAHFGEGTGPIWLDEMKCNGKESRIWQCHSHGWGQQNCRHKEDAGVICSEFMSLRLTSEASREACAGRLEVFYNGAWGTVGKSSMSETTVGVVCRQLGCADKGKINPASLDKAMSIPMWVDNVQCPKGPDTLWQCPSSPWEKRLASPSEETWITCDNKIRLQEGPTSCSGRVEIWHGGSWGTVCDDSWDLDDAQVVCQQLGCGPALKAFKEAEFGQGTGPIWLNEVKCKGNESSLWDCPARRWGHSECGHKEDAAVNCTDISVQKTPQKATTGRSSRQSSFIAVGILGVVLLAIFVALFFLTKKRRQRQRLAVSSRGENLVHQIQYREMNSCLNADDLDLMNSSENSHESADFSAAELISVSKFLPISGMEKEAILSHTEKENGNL
T1 sequence (Q86VB7 42-1156): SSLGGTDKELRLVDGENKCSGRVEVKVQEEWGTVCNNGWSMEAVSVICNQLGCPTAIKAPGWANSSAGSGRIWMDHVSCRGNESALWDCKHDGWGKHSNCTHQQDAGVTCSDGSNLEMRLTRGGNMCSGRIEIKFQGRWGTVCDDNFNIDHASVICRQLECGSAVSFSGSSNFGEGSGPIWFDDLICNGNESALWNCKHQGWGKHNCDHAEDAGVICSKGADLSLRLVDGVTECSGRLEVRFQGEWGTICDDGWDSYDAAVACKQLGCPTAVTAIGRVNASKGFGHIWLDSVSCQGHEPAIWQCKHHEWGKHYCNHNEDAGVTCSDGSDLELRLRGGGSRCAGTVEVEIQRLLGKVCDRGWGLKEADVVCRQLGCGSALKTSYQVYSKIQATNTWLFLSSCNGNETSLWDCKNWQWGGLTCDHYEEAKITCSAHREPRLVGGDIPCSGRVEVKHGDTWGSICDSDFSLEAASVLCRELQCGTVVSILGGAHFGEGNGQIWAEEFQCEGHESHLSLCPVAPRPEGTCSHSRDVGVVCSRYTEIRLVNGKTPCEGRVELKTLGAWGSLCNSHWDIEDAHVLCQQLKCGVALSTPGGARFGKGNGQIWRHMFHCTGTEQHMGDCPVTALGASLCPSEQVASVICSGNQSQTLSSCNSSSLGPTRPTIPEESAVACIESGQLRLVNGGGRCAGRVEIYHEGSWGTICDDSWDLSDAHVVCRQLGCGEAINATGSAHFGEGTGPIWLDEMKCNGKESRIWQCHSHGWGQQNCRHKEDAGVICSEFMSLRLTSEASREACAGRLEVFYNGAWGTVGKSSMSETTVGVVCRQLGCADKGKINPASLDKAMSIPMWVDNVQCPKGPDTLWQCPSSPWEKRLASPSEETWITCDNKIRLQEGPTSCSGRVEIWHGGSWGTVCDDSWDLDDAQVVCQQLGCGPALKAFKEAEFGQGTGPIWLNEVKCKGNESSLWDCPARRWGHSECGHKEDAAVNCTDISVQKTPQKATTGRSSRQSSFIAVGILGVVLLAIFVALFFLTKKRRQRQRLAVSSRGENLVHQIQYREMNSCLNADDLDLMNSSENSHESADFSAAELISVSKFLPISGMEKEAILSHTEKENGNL
Chain of recombinant CD163 immobilized on a Biacore chip (Q86VB7 42-1156): as above

B1: KN2/NRY: humanized IgG4 CD163 antibody, heavy chain gamma KN2 and light chain kappa NRY (antibody)
heavy: QVQLQESGPGLVKPSETLSLTCTVSGYSITSDYAWNWIRQFPGNKLEWMGYITYSGSTYYNPSLKSRVTISVDTSKNQFSLKLSSVTAADTATYYCVSGTYYFDYWGQGTTLTVSSASTKGPSVFPLAPCSRSTSESTAALGCLVKDYFPEPVTVSWNSGALTSGVHTFPAVLQSSGLYSLSSVVTVPSSSLGTKTYTCNVDHKPSNTKVDKRV[human IgG4 Fc not given here]
light: DIVMTQSPSSLSASVGDRVTITCRASQSVSSDVAWFQQKPGKSPKPLIYYASNRYSGVPSRFSGSGSGTDFTLTISSLQAEDFAVYFCGQDYTSPRTFGGGTKLEIKRTVAAPSVFIFPPSDEQLKSGTASVVCLLNNFYPREAKVQWKVDNALQSGNSQESVTEQDSKDSTYSLSSTLTLSKADYEKHKVYACEVTHQGLSSPVTKSFNRGEC
- affinity for human CD163, KN2/NRY compared with Mac2-158 [1]: Virtually similar affinities
- binding to CD14 positive monocytes [2]: specific binding

B2: KN2/NRY-HRP: HRP conjugated to KN2/NRY by periodate oxidation (conjugate)
heavy: QVQLQESGPGLVKPSETLSLTCTVSGYSITSDYAWNWIRQFPGNKLEWMGYITYSGSTYYNPSLKSRVTISVDTSKNQFSLKLSSVTAADTATYYCVSGTYYFDYWGQGTTLTVSSASTKGPSVFPLAPCSRSTSESTAALGCLVKDYFPEPVTVSWNSGALTSGVHTFPAVLQSSGLYSLSSVVTVPSSSLGTKTYTCNVDHKPSNTKVDKRV[human IgG4 Fc not given here]
light: DIVMTQSPSSLSASVGDRVTITCRASQSVSSDVAWFQQKPGKSPKPLIYYASNRYSGVPSRFSGSGSGTDFTLTISSLQAEDFAVYFCGQDYTSPRTFGGGTKLEIKRTVAAPSVFIFPPSDEQLKSGTASVVCLLNNFYPREAKVQWKVDNALQSGNSQESVTEQDSKDSTYSLSSTLTLSKADYEKHKVYACEVTHQGLSSPVTKSFNRGEC
- binding in western blot [3]: only binding to the human CD163 wt

— patent US9724426B2, “Agents, uses and methods” (AFFINICON APS, priority 2009, dated 2017)
